# Data as given in paper PMC4336329 (PLoS ONE, 2015).
# In all, about 310,000 compounds went through this assay and about 14,000 (4.5%) showed an effect of 50% or more. Effects have a minus sign here. The list shows a part of the results.
# Molecular target: human ether-à-go-go-related gene (hERG) potassium channel (human, UniProt Q12809)
# Assay: primary screen, population patch clamp on CHO cells stably expressing hERG
# 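Further: peak tail current of the secondary pulse compared with the same well before compound.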
# Sequence of human ether-à-go-go-related gene (hERG) potassium channel (Q12809 whole entry, looked up): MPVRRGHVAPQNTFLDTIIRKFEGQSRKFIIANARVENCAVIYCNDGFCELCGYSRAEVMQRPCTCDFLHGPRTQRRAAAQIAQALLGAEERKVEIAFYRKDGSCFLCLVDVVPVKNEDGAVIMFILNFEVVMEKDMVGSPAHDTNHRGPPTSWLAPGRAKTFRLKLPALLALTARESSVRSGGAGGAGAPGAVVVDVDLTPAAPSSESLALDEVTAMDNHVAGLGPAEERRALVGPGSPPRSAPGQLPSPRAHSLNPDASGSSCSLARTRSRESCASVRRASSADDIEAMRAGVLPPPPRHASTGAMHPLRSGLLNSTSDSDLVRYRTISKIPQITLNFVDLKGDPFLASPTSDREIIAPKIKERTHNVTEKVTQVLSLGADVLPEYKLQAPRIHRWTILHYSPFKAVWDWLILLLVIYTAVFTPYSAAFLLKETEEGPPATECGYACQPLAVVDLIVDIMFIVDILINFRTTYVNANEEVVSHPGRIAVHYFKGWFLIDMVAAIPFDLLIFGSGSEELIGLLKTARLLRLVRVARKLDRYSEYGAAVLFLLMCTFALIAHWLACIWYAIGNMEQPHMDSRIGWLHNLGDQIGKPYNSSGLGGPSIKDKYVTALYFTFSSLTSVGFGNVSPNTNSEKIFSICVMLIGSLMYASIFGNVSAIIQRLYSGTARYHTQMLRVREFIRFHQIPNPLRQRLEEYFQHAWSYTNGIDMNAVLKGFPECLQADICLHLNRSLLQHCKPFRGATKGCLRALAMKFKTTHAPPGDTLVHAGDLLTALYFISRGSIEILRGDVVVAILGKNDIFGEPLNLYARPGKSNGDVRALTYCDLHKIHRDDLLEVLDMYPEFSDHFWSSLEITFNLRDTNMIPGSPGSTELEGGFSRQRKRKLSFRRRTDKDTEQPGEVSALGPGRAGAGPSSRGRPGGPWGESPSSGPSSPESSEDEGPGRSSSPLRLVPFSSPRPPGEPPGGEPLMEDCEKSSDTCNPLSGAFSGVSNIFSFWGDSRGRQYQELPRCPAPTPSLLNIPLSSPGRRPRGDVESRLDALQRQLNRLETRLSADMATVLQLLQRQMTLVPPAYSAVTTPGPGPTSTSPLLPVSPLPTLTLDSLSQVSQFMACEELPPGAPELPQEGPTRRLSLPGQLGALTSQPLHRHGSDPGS
row,Compound,"hERG current change (%, negative = inhibition) at 10uM [%]"
1,Cc1ccc(-c2nc(C)sc2CC(=O)OCC(=O)Nc2cccc([N+](=O)[O-])c2)cc1,-33.5
2,COC(=O)c1ccccc1SCc1csc(C)n1,15.2
3,COc1ccc(NC(=O)C2CC(=O)N(C(C)C)C2)cc1 (centres unmarked),11.1
4,O=C(CSc1nc2ccccc2c(=O)n1CC1CCCO1)NCc1ccc2c(c1)OCO2 (centres unmarked),-30.2
5,CN(C)c1ccc(C2Nc3ccccc3C(=O)N2CCCN2CCOCC2)cc1 (centres unmarked),-9.99
6,Cc1nc(NC(=O)C2CCCCC2)sc1C,-17.9
7,O=C(O)CC1S/C(=N/N=C/c2ccc(-c3ccccc3[N+](=O)[O-])o2)NC1=O (centres unmarked),-1.58
8,CCCc1cc(C(=O)OC)c(NC(=O)c2cc(C)on2)s1,1.01
9,O=C(Cc1ccc([N+](=O)[O-])cc1)N1N=C(C2CC2)CC1(O)C(F)(F)F (centres unmarked),1.49
10,CCn1c(Cc2ccccc2)nnc1SCC(=O)Nc1ccc(C)cc1,-10.2
11,CCCCOc1ccc(N=Nc2ccc(N)nc2N)cn1,10.8
12,O=C(O)C(Cc1c[nH]c2ccccc12)NS(=O)(=O)c1ccc2ccccc2c1 (centres unmarked),-2.25
13,COc1cccc(CNCc2ccccc2OC)c1.O=C(O)C(=O)O,-8.39
14,O=C(NCc1ccccc1F)C1CCCN(C(=O)NC2CCCCC2)C1 (centres unmarked),-2.97
15,Cn1c(SCC(=O)c2ccccc2)ncc(C(=O)Nc2ccccc2)c1=O,6.66
16,COc1ccc(S(=O)(=O)Cc2ccc(C(=O)NCc3ccccc3OC)o2)cc1,-41.6
17,COCCCNC(=S)N1CCN(S(C)(=O)=O)CC1,11.6
18,O=C(O)CCSc1nnc(COc2cccc3cccnc23)n1-c1ccccc1,12.1
19,CC(C)CCNC(=O)C1CCC(=O)N1C(C)C (centres unmarked),11.5
20,O=C(CCC(=O)N1CCN(C2CCCCC2)CC1)Nc1nnc(C(F)(F)F)s1,-19.8
21,Cc1[nH]n(-c2ccc([N+](=O)[O-])cc2)c(=O)c1/C=N/N1CCOCC1,0.128
22,CC(=O)N1CC(C)c2scc(C)[n+]2-c2ccccc21.[Cl-] (centres unmarked),-17.2
23,CCCOC(=O)C1C2C=CC(C3CC23)C1C(=O)OCC(=O)c1ccccc1 (centres unmarked),-22.8

row,Compound,"hERG current change (%, negative = inhibition) at 10uM [%]"
1,CC(C)n1c(CN(C)c2ccccc2)nc2ccccc21.Cl,-0.273
2,CCOC(=O)/C(C(N)=NCc1ccco1)=C(/O)c1ccccc1,-5.87
3,CCOc1ccccc1NC(=O)CCN1CCN(S(=O)(=O)c2ccc(Br)cc2)CC1,-6.62
4,CC(C)[C@H](NC(=O)[C@@H]1Cc2c([nH]c3ccccc23)C2c3ccccc3C(=O)N21)C(=O)NCC1CCCO1 (some centres unmarked),5.33
5,Cc1ccc2c(CC(=O)OCc3nc(N)nc(Nc4ccccc4C)n3)coc2c1,5.79
6,O=C(Nc1ccccc1)c1ccc2c(c1)OCO2,3
7,Brc1cccc(C=Nc2cccc3ncccc23)c1,7.37
8,CC1(C)CC2CC(C)(CN2C(=O)C23CCC(C)(C(=O)O2)C3(C)C)C1 (centres unmarked),-8.69
9,CCc1ccc(-c2cc(C)no2)cc1S(=O)(=O)NCc1ccco1,-12.6
10,CCOC(=O)c1c[nH]c2c(C(=O)c3ccccc3)cc(Cl)cc2c1=O,-5.13
11,O=C(CNC(=O)c1ccc(Cl)cc1Cl)OCn1nnc2ccccc2c1=O,5.27
12,CCOc1ccccc1N1CCN(Cc2ccc(OC)c(OC)c2OC)CC1,-51.9
13,Cc1nc(CSc2nnc3scc(-c4ccccc4)n23)cs1,6.9
14,CC1(C)CC(=O)C(C=NCCN2CCN(C(=O)C34CC5CC(CC(C5)C3)C4)CC2)=C(O)C1,10.1
15,Cc1ccc2nc(SCC(=O)NC(=O)NCc3ccco3)[nH]c2c1,-17.7
16,O=C(Nc1ccc([N+](=O)[O-])cc1)Nc1nc(-c2ccc(Cl)s2)cs1,25.7
17,CCc1cc2c(=O)n(-c3ccccc3)cnc2s1,5.13
18,Cc1nonc1C(=O)N1CCCC(N2CCN(c3ccc(F)cc3)CC2)C1 (centres unmarked),-51.8
19,Br.CN1CCc2cc3c(c4c2[C@H]1[C@H](O)c1ccccc1-4)OCO3,-34.8
20,COc1cc(NC(=O)c2ccco2)ccc1NC(=O)C(C)C,-1.58
21,CC(=O)Nc1cccc(Cl)c1C(=O)O,8.38
22,CCN(Cc1ccccc1)S(=O)(=O)c1ccc(OC)c2ncccc12,-48.3
23,C=CCn1c(SCC2=C(C(=O)OCC)C(C)NC(=O)N2)nnc1C1CCCCC1 (centres unmarked),10

row,Compound,"hERG current change (%, negative = inhibition) at 10uM [%]"
1,CN(C(=O)CSc1nc2cc([N+](=O)[O-])ccc2n1-c1ccc(F)cc1)C1CCS(=O)(=O)C1 (centres unmarked),2.56
2,C/C(=N\Nc1cc(C)nc(-c2ccccc2O)n1)c1ccccc1O,18.7
3,CCOC(=O)COc1ccc(S(=O)(=O)NCc2ccncc2)cc1,-10.6
4,O=C(COc1ccc(Br)cc1)N1CCN(C2CCCC2)CC1,-63.6
5,CC(/C=N/NC(=O)c1nnn(-c2nonc2N)c1C)=C\c1ccccc1,11
6,CSc1nnc(C(C)(C)C)c(=O)n1/N=C/c1ccccc1O,-5.95
7,O=C(O)c1cnc(-c2ccccc2)nc1Oc1ccccc1,29
8,O=C1NCC(O)=C1C=NCCCO,12.6
9,COc1cccc(CSc2nc3ccccc3cc2C=O)c1,15
10,COc1cccc(C2C(C#N)=C(N)N(N(C)C)C3=C2C(=O)CCC3)c1OC (centres unmarked),26.5
11,COc1ccc(/C=C(/NC(=O)c2ccccc2)C(=O)N2CCCC2)cc1,2.89
12,COc1ccccc1CCNCc1cccc(C(F)(F)F)c1.O=C(O)C(=O)O,8.94
13,COc1ccc(C)cc1S(=O)(=O)N1c2ccccc2CC1C (centres unmarked),-21.9
14,O=C(COc1ccc2c(-c3ccccc3)cc(=O)oc2c1)NC1CCS(=O)(=O)C1 (centres unmarked),5.36
15,Cc1ccc(NC(=O)COC(=O)CCc2c[nH]c3ccccc23)c(C)c1,9.87
16,C/C(=N\NC(=O)c1ccncc1)c1cccc(NC(=O)c2ccc(C(C)(C)C)cc2)c1,-53.7
17,CC(C(=O)Nc1cccc(Br)c1)c1ccc([N+](=O)[O-])cc1 (centres unmarked),-47.3
18,CCC(C)c1ccc(NC(=O)C2CCN(c3ncccn3)CC2)cc1 (centres unmarked),13.2
19,CCSc1nnc(N)s1,12.3
20,O=C(CSc1ccc2ccccc2c1)Nc1ccc(S(=O)(=O)Nc2nccs2)cc1,8.33
21,CC1Cc2ccccc2N1C(=O)CSc1nc2ccccc2s1 (centres unmarked),22.4
22,Cc1occc1C(=O)N/N=C/c1cnn(C)c1C,-7.6
23,CCc1ccc2nc(SCC(=O)Nc3nnc(C)s3)c(C)cc2c1,16

row,Compound,"hERG current change (%, negative = inhibition) at 10uM [%]"
1,CC(=O)c1ccc(NC(=S)NC(=O)Cc2ccc(Cl)cc2)cc1,12.8
2,CCN1C(=O)c2cccc3c(S(=O)(=O)NC(Cc4ccccc4)C(=O)O)ccc1c23 (centres unmarked),17.7
3,O=C(CSc1nnc(SCc2ccccc2)s1)NNC(=S)Nc1ccccc1,31
4,COc1cccc(NC(=O)COC(=O)CCCC2=NS(=O)(=O)c3ccccc3N2)c1,15.1
5,CN(C)CCCN(C(=O)c1ccc([N+](=O)[O-])o1)c1nc2cc3c(cc2s1)OCO3.Cl,-71.8
6,COc1cc(NC(=O)CN2CCN(c3ccccc3F)CC2)c(C)cc1[N+](=O)[O-],28.2
7,O=C1Cc2ccccc2C(c2ccc(Cl)cc2)N1 (centres unmarked),-0.179
8,COc1cc(Cl)ccc1OCc1cc(C(=O)N2CCC(N(C)C)C2)no1 (centres unmarked),-26.6
9,COC(=O)CCC(=O)N(CCN(C(=O)CCC(=O)OC)c1ccccc1)c1ccccc1,9.35
10,CC1(c2nnc(-c3ccncc3)o2)CC(c2ccc(Cl)cc2)=NO1 (centres unmarked),-26.8
11,CC(C)Cn1cc(Cl)c(=O)n(CC(C)C)c1=O,35.1
12,Cc1ccc(S(=O)(=O)NCc2ccccc2)cc1C(=O)NCc1ccccn1,-0.432
13,Cc1ccc(C2C3=C(Nc4[nH]n(-c5ccccc5)c(=O)c42)c2ccccc2C3=O)cc1 (centres unmarked),-12.1
14,CSc1ccccc1OCc1cc(C(=O)NCCc2ccco2)no1,4.27
15,Cl.Fc1ccc(Nc2nc(N/N=C/c3ccco3)nc(N3CCCCC3)n2)cc1,35.1
16,Cc1cc(C(=O)N/N=C\c2cc(C(C)(C)C)ccc2O)n[nH]1,-40.5
17,CCOC(=O)c1ccc(NC(=O)CSc2nnc(C3CC3)n2C)cc1,1.76
18,COc1ccc(OC)c(C2C(C(=O)c3ccccc3)=C(C)Nc3nc4ccccc4n32)c1 (centres unmarked),6.63
19,Cc1ccc(N(CC(=O)NCc2cccnc2)S(C)(=O)=O)cc1C,-1.16
20,Cc1ccc(-c2nnc(NC(=O)c3ccco3)s2)cc1,8.92
